Reference: the supplement of paper PMC12578646, “Prodrug florfenicol amine is activated by intrinsic resistance to target Mycobacterium abscessus” (Nature Microbiology, 2025)
In brackets after ≈: the same amount, converted by molar mass. Several values for one entry are separate records, joined by “and”; a condition that tells them apart may be missing. Equal entries are not always repeated. M. abscessus ATCC 19977 and its deletion, point and complemented mutants after 5 days of drug at 37 °C plus 24 h of resazurin. Growth in % of untreated wells at the dose given (lower = more inhibition); checkerboards give % inhibition (higher = more inhibition); IC50 from the fitted curve (lower = more potent). No active / inactive call. IC50 values come from the same 384-well curves. Growth is not capped and can exceed 100%. The direction of the checkerboard scale is read from the raw signals. Capreomycin is a mixture.

Experiments:
[1] = tested on: Mycobacterium abscessus ATCC 19977 WhiB7 A51T
Description: (§1)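 384-well two-fold dose series, two replicates; 5 days at 37 °C, then 24 h with resazurin; fluorescence scaled to growth and killed controls.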

[2] = tested on: Mycobacterium abscessus ATCC 19977 WhiB7 R76del
Description: as §1

[3] = tested on: Mycobacterium abscessus ATCC 19977 WhiB7 L37P
Description: as §1

[4] = tested on: Mycobacterium abscessus ATCC 19977 Eis2 T258R
Description: as §1

[5] = tested on: Mycobacterium abscessus ATCC 19977 Eis2 Y227D
Description: as §1

[6] = tested on: Mycobacterium abscessus ATCC 19977 Eis2 Y255*
Description: as §1

[7] = tested on: Mycobacterium abscessus ATCC 19977 Eis2 E120fs
Description: as §1

[8] = tested on: Mycobacterium abscessus ATCC 19977 ΔwhiB7
Description: as §1

[9] = tested on: Mycobacterium abscessus ATCC 19977 Δeis2
Description: as §1

[10] = tested on: Mycobacterium abscessus ATCC 19977 WhiB7 F24fs
Description: as §1

[11] = tested on: Mycobacterium abscessus ATCC 19977 Eis2 Y284*
Description: as §1

[12] = tested on: Mycobacterium abscessus ATCC 19977 WhiB7 T70fs
Description: as §1

[13] = tested on: Mycobacterium abscessus ATCC 19977 Δcat; assay: growth relative to untreated wells; higher = more growth
Description: (§2)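 Two-fold dose series, three replicates; 5 days at 37 °C, then 24 h with resazurin; fluorescence scaled to growth and killed controls.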

[14] = tested on: Mycobacterium abscessus ATCC 19977 ΔwhiB7; assay: as above
Description: as §2

[15] = tested on: Mycobacterium abscessus ATCC 19977; assay: as above
Description: as §2

[16] = tested on: Mycobacterium abscessus ATCC 19977; assay: growth inhibition; higher = more inhibition
Description: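 384-well checkerboard, three replicates; 5 days at 37 °C, then 24 h with resazurin; fluorescence scaled to growth and killed controls.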

[17] = tested on: Mycobacterium abscessus ATCC 19977 WhiB7 A51T; assay: growth relative to untreated wells; higher = more growth (less inhibition)
Description: as §1

CS(=O)(=O)c1ccc([C@@H](O)[C@H](N)CF)cc1 [florfenicol amine]
Conditions	IC50 [µg/mL]
[1]	218 (≈ 880 µM)
[2]	117 (≈ 474 µM)
[3]	112 (≈ 452 µM)
[4]	82.3 (≈ 333 µM)
[5]	72.5 (≈ 293 µM)
[6]	60.4 (≈ 244 µM)
[7]	72.4 (≈ 293 µM)
[8]	122 (≈ 493 µM)
[9]	138 (≈ 556 µM)
[10]	118 (≈ 475 µM)
[11]	60.6 (≈ 245 µM)
[12]	116 (≈ 469 µM)

Conditions	growth [%]	growth inhibition
[13], 1 µg/mL	96.1	–
[13], 2 µg/mL	79.1	–
[13], 4 µg/mL	66.1	–
[13], 8 µg/mL	48.3	–
[13], 16 µg/mL	34.9	–
[13], 32 µg/mL	14.3	–
[13], 64 µg/mL	-1.9	–
[13], 128 µg/mL	-5.41	–
[13], 256 µg/mL	-4.73	–
[13], 512 µg/mL	-2.02	–
[14], 1 µg/mL	102.4	–
[14], 2 µg/mL	98.3	–
[14], 4 µg/mL	100	–
[14], 8 µg/mL	102	–
[14], 16 µg/mL	103	–
[14], 32 µg/mL	108	–
[14], 64 µg/mL	88.4	–
[14], 128 µg/mL	58.8	–
[14], 256 µg/mL	-0.448	–
[14], 512 µg/mL	3.71	–
[15], 1 µg/mL	104	–
[15], 2 µg/mL	88.7	–
[15], 4 µg/mL	80.3	–
[15], 8 µg/mL	72.7	–
[15], 16 µg/mL	61.9	–
[15], 32 µg/mL	36.6	–
[15], 64 µg/mL	4.88	–
[15], 128 µg/mL	-3.89	–
[15], 256 µg/mL	-2.96	–
[15], 512 µg/mL	2.55	–
[16], 0.241504 µg/mL	–	4.7% and -5.63%
[16], 0.483008 µg/mL	–	1.14% and -2.07%
[16], 0.966016 µg/mL	–	-4.66% and -4.44%
[16], 1.93203 µg/mL	–	-8.49% and -11.6%
[16], 3.86406 µg/mL	–	-10.9% and -12.5%
[16], 7.72813 µg/mL	–	-8.86% and -10.3%
[16], 15.4563 µg/mL	–	56.6% and 55.3%
[16], 30.9125 µg/mL	–	87.7% and 89.1%
[16], 61.825 µg/mL	–	94.9% and 94.3%
[16], 123.65 µg/mL	–	99.7% and 101%
[17], 0.25 µg/mL	104	–
[17], 0.5 µg/mL	106	–
[17], 1 µg/mL	99.8	–
[17], 2 µg/mL	110	–
[17], 4 µg/mL	106	–
[17], 8 µg/mL	103	–
[17], 16 µg/mL	106	–
[17], 32 µg/mL	118	–
[17], 64 µg/mL	128.8	–
[17], 128 µg/mL	123	–
[17], 256 µg/mL	0.654	–
[17], 512 µg/mL	-1.47	–

CS(=O)(=O)c1ccc([C@@H](O)[C@H](N)CF)cc1 [florfenicol amine] + CC(=O)NC[C@H]1CN(c2ccc(N3CCOCC3)c(F)c2)C(=O)O1 [Linezolid]
growth inhibition [%], [16]
Conditions	partner concentration 0.125 µg/mL	partner concentration 0.25 µg/mL	partner concentration 0.5 µg/mL	partner concentration 1 µg/mL	partner concentration 2 µg/mL	partner concentration 4 µg/mL	partner concentration 8 µg/mL	partner concentration 16 µg/mL	partner concentration 32 µg/mL	partner concentration 64 µg/mL
0.241504 µg/mL	12.8	7.44	-0.26	-7.24	-12.9	79.4	102	103.2	104	103.9
0.483008 µg/mL	9.78	8.02	0.813	-11.6	14.3	97.4	103.1	103.8	104.45	104.3
0.966016 µg/mL	-18.5	-19.4	-23.9	-21.5	64	99.7	101.3	102.4	103.6	103.9
1.93203 µg/mL	-17.2	-16.8	-10.6	11.7	93.6	102.5	102.6	103.5	103	104.5
3.86406 µg/mL	-8.64	-5.94	-0.659	50.6	97.51	103.6	103.6	103.7	104	105.2
7.72813 µg/mL	-5.01	11.8	41.4	89.42	96.2	103.9	103	104.3	104.89	104.9
15.4563 µg/mL	73.4	86.39	89.52	88.7	99.26	104.53	103	104.6	104.93	103
30.9125 µg/mL	91.17	91.79	91.84	88.73	100.6	105	104.48	104.8	104.9	105.4
61.825 µg/mL	94.06	92.7	93.31	95.37	104.5	105.26	104.54	104.5	104.7	104.7
123.65 µg/mL	100.4	100.9	101.5	103.1	104.8	105	104	103.9	104.1	104.3
